Source: patent US9873709B2 (priority 2013, dated 2018)

Molecular target: isolated recombinant JAK1 kinase domain (Homo sapiens (Human), UniProt P23458)
Conditions: read-out: JAK1 Ki; isolated recombinant JAK1 kinase domain, 25 μM ATP

Structure (SMILES) | Ki [nM]
CCOC(=O)N1CC=C(c2cccn3nc(Nc4ccc(C(=O)N5CCOC6(CCNCC6)C5)cc4)nc23)CC1 [Example 2-25, ethyl 4-[2-[4-(1-oxa-4,9-diazaspiro[5.5]undecane-4-carbonyl)anilino]-[1,2,4]triazolo[1,5-a]pyridin-8-yl]-3,6-dihydro-2H-pyridine-1-carboxylate] | 2.85
CCOC(=O)N1CC=C(c2cccn3nc(Nc4ccc(C(=O)NC5CC6(CCNCC6)C5)cc4)nc23)CC1 [Example 2-27, ethyl 4-[2-[4-(7-azaspiro[3.5]nonan-2-ylcarbamoyl)anilino]-[1,2,4]triazolo[1,5-a]pyridin-8-yl]-3,6-dihydro-2H-pyridine-1-carboxylate] | 1.63
O=C(CCC(F)(F)F)N1CC=C(c2cccn3nc(Nc4ccc(C(=O)N5CCC6(CCNC6)C5)cc4)nc23)CC1 (stereo not shown) [Example 2-28, 1-[4-[2-[4-(2,7-diazaspiro[4.4]nonane-2-carbonyl)anilino]-[1,2,4]triazolo[1,5-a]pyridin-8-yl]-3,6-dihydro-2H-pyridin-1-yl]-4,4,4-trifluoro-butan-1-one] | 1.42
O=C(CCC(F)(F)F)N1CC=C(c2cccn3nc(Nc4ccc(C(=O)N5CCC6(CCNCC6)CC5)cc4)nc23)CC1 [Example 2-29, 1-[4-[2-[4-(3,9-diazaspiro[5.5]undecane-3-carbonyl)anilino]-[1,2,4]triazolo[1,5-a]pyridin-8-yl]-3,6-dihydro-2H-pyridin-1-yl]-4,4,4-trifluoro-butan-1-one] | 1.49
O=C(NCC1CNCCO1)c1ccc(Nc2nc3c(C4=CCN(C(=O)CCC(F)(F)F)CC4)cccn3n2)cc1 (stereo not shown) [Example 2-30, N-(morpholin-2-ylmethyl)-4-[[8-[1-(4,4,4-trifluorobutanoyl)-3,6-dihydro-2H-pyridin-4-yl]-[1,2,4]triazolo[1,5-a]pyridin-2-yl]amino]benzamide] | 1.43
CNCCNC(=O)c1ccc(Nc2nc3c(C4=CCN(C(=O)CCC(F)(F)F)CC4)cccn3n2)cc1 [Example 2-31, N-[2-(methylamino)ethyl]-4-[[8-[1-(4,4,4-trifluorobutanoyl)-3,6-dihydro-2H-pyridin-4-yl]-[1,2,4]triazolo[1,5-a]pyridin-2-yl]amino]benzamide] | 1.51
O=C(NCCN1CCNCC1)c1ccc(Nc2nc3c(C4=CCN(C(=O)CCC(F)(F)F)CC4)cccn3n2)cc1 [Example 2-32, N-(2-piperazin-1-ylethyl)-4-[[8-[1-(4,4,4-trifluorobutanoyl)-3,6-dihydro-2H-pyridin-4-yl]-[1,2,4]triazolo[1,5-a]pyridin-2-yl]amino]benzamide] | 1.38
O=C(CCC(F)(F)F)N1CC=C(c2cccn3nc(Nc4ccc(C(=O)N5CCNCC5CO)cc4)nc23)CC1 (stereo not shown) [Example 2-33, 4,4,4-trifluoro-1-[4-[2-[4-[2-(hydroxymethyl)piperazine-1-carbonyl]anilino]-[1,2,4]triazolo[1,5-a]pyridin-8-yl]-3,6-dihydro-2H-pyridin-1-yl]butan-1-one] | 0.63
O=C(CCC(F)(F)F)N1CC=C(c2cccn3nc(Nc4ccc(C(=O)N5CCCCC56CCCNC6)cc4)nc23)CC1 (stereo not shown) [Example 2-34, 1-[4-[2-[4-(1,8-diazaspiro[5.5]undecane-1-carbonyl)anilino]-[1,2,4]triazolo[1,5-a]pyridin-8-yl]-3,6-dihydro-2H-pyridin-1-yl]-4,4,4-trifluoro-butan-1-one] | 1.93
O=C(CCC(F)(F)F)N1CC=C(c2cccn3nc(Nc4ccc(C(=O)N5CC6(CCNC6)C5)cc4)nc23)CC1 [Example 2-35, 1-[4-[2-[4-(2,7-diazaspiro[3.4]octane-2-carbonyl)anilino]-[1,2,4]triazolo[1,5-a]pyridin-8-yl]-3,6-dihydro-2H-pyridin-1-yl]-4,4,4-trifluoro-butan-1-one] | 0.82
CN(C(=O)c1ccc(Nc2nc3c(C4=CCN(C(=O)CCC(F)(F)F)CC4)cccn3n2)cc1)C1CCCNC1 (stereo not shown) [Example 2-36, N-methyl-N-(3-piperidyl)-4-[[8-[1-(4,4,4-trifluorobutanoyl)-3,6-dihydro-2H-pyridin-4-yl]-[1,2,4]triazolo[1,5-a]pyridin-2-yl]amino]benzamide] | 2.29
O=C(CCC(F)(F)F)N1CC=C(c2cccn3nc(Nc4ccc(C(=O)N5CC6CNCC(C5)O6)cc4)nc23)CC1 [Example 2-37, 4,4,4-trifluoro-1-[4-[2-[4-(9-oxa-3,7-diazabicyclo[3.3.1]nonane-3-carbonyl)anilino]-[1,2,4]triazolo[1,5-a]pyridin-8-yl]-3,6-dihydro-2H-pyridin-1-yl]butan-1-one] | 1.16
CN1CC[C@H]2CN(C(=O)c3ccc(Nc4nc5c(C6=CCN(C(=O)CCC(F)(F)F)CC6)cccn5n4)cc3)C[C@H]21 [Example 2-38, 1-[4-[2-[4-[(3aS,6aS)-1-methyl-2,3,3a,4,6,6a-hexahydropyrrolo[3,4-b]pyrrole-5-carbonyl]anilino]-[1,2,4]triazolo[1,5-a]pyridin-8-yl]-3,6-dihydro-2H-pyridin-1-yl]-4,4,4-trifluoro-butan-1-one] | 1.21
CCN1CCC(CN(C)C(=O)c2ccc(Nc3nc4c(C5=CCN(C(=O)CCC(F)(F)F)CC5)cccn4n3)cc2)C1 (stereo not shown) [Example 2-39, N-[(1-ethylpyrrolidin-3-yl)methyl]-N-methyl-4-[[8-[1-(4,4,4-trifluorobutanoyl)-3,6-dihydro-2H-pyridin-4-yl]-[1,2,4]triazolo[1,5-a]pyridin-2-yl]amino]benzamide] | 1.79
CN1CCCC12CN(C(=O)c1ccc(Nc3nc4c(C5=CCN(C(=O)CCC(F)(F)F)CC5)cccn4n3)cc1)C2 [Example 2-40, 4,4,4-trifluoro-1-[4-[2-[4-(5-methyl-2,5-diazaspiro[3.4]octane-2-carbonyl)anilino]-[1,2,4]triazolo[1,5-a]pyridin-8-yl]-3,6-dihydro-2H-pyridin-1-yl]butan-1-one] | 0.51
Cc1ccnc(CNC(=O)c2ccc(Nc3nc4c(C5=CCN(C(=O)CCC(F)(F)F)CC5)cccn4n3)cc2)c1 [Example 2-41, N-[(4-methyl-2-pyridyl)methyl]-4-[[8-[1-(4,4,4-trifluorobutanoyl)-3,6-dihydro-2H-pyridin-4-yl]-[1,2,4]triazolo[1,5-a]pyridin-2-yl]amino]benzamide] | 0.58
Cc1ncccc1CNC(=O)c1ccc(Nc2nc3c(C4=CCN(C(=O)CCC(F)(F)F)CC4)cccn3n2)cc1 [Example 2-42, N-[(2-methyl-3-pyridyl)methyl]-4-[[8-[1-(4,4,4-trifluorobutanoyl)-3,6-dihydro-2H-pyridin-4-yl]-[1,2,4]triazolo[1,5-a]pyridin-2-yl]amino]benzamide] | 0.56
CC(CC(=O)N1CC=C(c2cccn3nc(Nc4ccc(C(=O)N(C)C5CCN(C)CC5)cc4)nc23)CC1)C(F)(F)F (stereo not shown) [Example 2-43, N-methyl-N-(1-methyl-4-piperidyl)-4-[[8-[1-(4,4,4-trifluoro-3-methyl-butanoyl)-3,6-dihydro-2H-pyridin-4-yl]-[1,2,4]triazolo[1,5-a]pyridin-2-yl]amino]benzamide] | 2.58
O=C(CCC(F)(F)F)N1CC=C(c2cccn3nc(Nc4ccc(C(=O)N5CCC(N6CCOCC6)C5)cc4)nc23)CC1 (stereo not shown) [Example 2-45, 4,4,4-trifluoro-1-[4-[2-[4-(3-morpholinopyrrolidine-1-carbonyl)anilino]-[1,2,4]triazolo[1,5-a]pyridin-8-yl]-3,6-dihydro-2H-pyridin-1-yl]butan-1-one] | 1.13
